Measured values: PMC4242493
This is one part of the list. The list includes weakly bound sequences.

molecular target: MaxL homodimer (UniProt P61244); test: universal protein-binding microarray (PBM); settings: PBS-based mixture, 10 nM His-tagged protein dimer, 2% milk, 200 ng/uL BSA, 50 ng/uL salmon testes DNA, 0.02% TX-100; detection with Alexa 488 anti-His …; high values mean tight binding; most listed sequences are background and not binding sites; double strand, one strand shown
UniProt P61244, sequence (P61244 whole entry): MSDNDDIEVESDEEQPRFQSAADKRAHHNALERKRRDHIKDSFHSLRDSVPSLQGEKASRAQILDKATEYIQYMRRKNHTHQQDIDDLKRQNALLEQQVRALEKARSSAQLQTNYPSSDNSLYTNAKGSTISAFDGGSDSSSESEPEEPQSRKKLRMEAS

Sequence	binding signal (normalized occupancy)
AAGGGTCC	0.0698
GGTCCACA	0.0842
GTTCCCGA	0.0705
AGCAGCGG	0.0754
TAGTTGCA	0.0712
CGAAAGCA	0.0741
ATAAACAG	0.0716
CCTTACTC	0.0769
ATCTGCCC	0.0754
CAATTAGG	0.0717
ATCTACCA	0.0834
CGCTTCTC	0.0721
CGAGGATC	0.0785
AGGGGCAT	0.0893
GACAGCTA	0.0749
GACAATCA	0.0761
CTCGCGAA	0.071
GCCATTGA	0.0698
ACCCGTTA	0.0747
CCTTCCAG	0.0698
ATGCATGC	0.126
ATGGACGA	0.0815
AAGCCAGT	0.0699
AGCTGTCG	0.0737
AAGCAATT	0.0685

Sequence	binding signal (normalized occupancy)
GTTTCGAA	0.0702
GTACTAAA	0.0741
GGATTTCA	0.0701
AGATGGAG	0.0771
CCGGCTAG	0.0632
AGTCCACT	0.0773
TACCGTAA	0.0744
CACATCTG	0.0871
GTCTCAGA	0.0751
ATGAGAGG	0.0755
TCTAGTAA	0.0783
AACGGCCC	0.0679
ACAAACAT	0.0871
AGTCTTAA	0.0743
AGGCGGAT	0.0708
CATTGGGG	0.0853
AGGCGGCG	0.0693
GCACTCCA	0.0756
AGACTATA	0.0771
GTTCCATA	0.0847
CGGGATTC	0.0741
AAACCACG	0.0972
CGGACTAC	0.0743
TCATCAAA	0.0748
ATTCGTTC	0.0776

Sequence	binding signal (normalized occupancy)
AGTATTGG	0.0738
CTTCAATA	0.0784
ATTCTACG	0.0767
CACGTAAG	0.0796
ACAGACGT	0.0771
ACATGGGT	0.1
GTGGTCCA	0.0853
GGTCAATA	0.0817
AACGCTAA	0.0764
CTGACTTC	0.0702
CTTATGCA	0.0817
AATCCTAC	0.0777
ACAAGCCA	0.0785
AGTTTGAA	0.0729
GCAATCAC	0.0763
AAACAGCC	0.0712
CTTACTGA	0.0709
AGCATTAG	0.0766
ATTGCCGG	0.0696
GGCTCGTA	0.0762
GCATTCGC	0.0709
GAATGACC	0.0752
ACAGATTG	0.0752
ATATTGCA	0.0767
CCAGCCAG	0.0737

Sequence	binding signal (normalized occupancy)
GCATTCCC	0.0791
TAACGCAA	0.0766
GTATCTGA	0.0784
GCTATTCA	0.0731
ATAAAGGC	0.0757
CCCGTTGC	0.0682
ACACGGAT	0.0806
ACGGCCTG	0.0707
AACAGACT	0.0794
AGTTCCCA	0.0684
AACTTCGT	0.0691
ATTATATC	0.0811
AGGTAGAT	0.0759
CAGCCGAC	0.0758
CAGTAACG	0.0748
CCGAACAA	0.0756
TATGTTAA	0.0796
CAGTGTTC	0.071
GCCTACTA	0.0703
CCCTTCGG	0.0671
ATCGCCAC	0.0789
GATGGCGC	0.0717
ACAGGACC	0.0698
CCGTGTGC	0.0858
CCGAACTC	0.0678

Sequence	binding signal (normalized occupancy)
AATATCAT	0.0842
GAGTCGTA	0.0742
CGAGGGCA	0.0765
ACTCCTTA	0.0782
ACCCGACC	0.0766
CAACCATC	0.0774
ATCCGAAC	0.0723
CGAAAGCG	0.067
CGCTTTTA	0.0697
ACCGAGGC	0.0719
AGCAAAAT	0.0746
GGATTCGA	0.0769
ATACGCGC	0.0771
CCATGTCC	0.0824
ATTTCCCG	0.07
CACGTGGC	0.837
CGGCGATC	0.0709
AGACATCC	0.0736
ACAGCCTC	0.0748
GTATGCAA	0.0777
ACACCAAC	0.0768
CTATATGC	0.0831
ATACACCA	0.0809
AAAACTTA	0.0713
CGACAAAG	0.0696

Sequence	binding signal (normalized occupancy)
CATGCAAC	0.0893
ATCGTGAG	0.0769
ATATATCC	0.0888
CAATATAG	0.076
GCTACTCA	0.0648
GCCATACC	0.0836
ACAGTCTG	0.0756
TGAATCAA	0.0815
TACACCCA	0.077
AGTGGGCG	0.0747
CACGTAGA	0.0865
GGGTCTAA	0.0755
TTTCAAAA	0.0743
AATTTGAC	0.0715
CATCAAAC	0.0788
AGCACGAA	0.0827
CCTCGATA	0.0765
AGACACTC	0.0698
AGCCGACC	0.0705
AGGATCCC	0.0724
ATAGAGCG	0.0749
ATTATTAA	0.0774
ACCATCCT	0.0757
CGCCGCTA	0.0672
CGAGCGCA	0.0729

Sequence	binding signal (normalized occupancy)
ATATGCCA	0.0822
ATGAAAAG	0.0797
AAAATGTT	0.0725
CGATGCTA	0.073
ACCCAGGT	0.0767
ATATCTGA	0.0769
CGATTCAG	0.0701
ATACGACG	0.0796
AGGAATTA	0.077
CCTAGGTC	0.0677
ACCTCAGG	0.0672
ATCTACTG	0.0742
ATCGACCA	0.0759
GTGAGTAA	0.0776
GATCTCGC	0.0728
CCGGGTTC	0.0659
ACTGACAC	0.0735
AGTCCAAT	0.0739
AGGCGACT	0.0729
AGATCCGC	0.0757
CTCTGATC	0.071
ATTATAAA	0.0757
GAGCCTCC	0.0717
ACTGCTAC	0.079
CCTCGAGA	0.0756

Sequence	binding signal (normalized occupancy)
CAGCATCG	0.0732
CACTCCCG	0.0732
CAAGTTCG	0.0733
ATTAACCG	0.0734
CGCACTTC	0.0764
GGTACAAA	0.0739
GTGCTAGA	0.0825
GATGTTCC	0.0807
ACCGATGG	0.074
TAGTACTA	0.0709
AAGCTCGG	0.0686
AATCAAAA	0.0706
AAATGTTG	0.0794
ACTGCCAA	0.0746
CCGAGTCG	0.067
GGAATTGA	0.0755
AGTCATCA	0.0755
ATCTCCAC	0.0773
AACCGAAT	0.0773
ACGGCTGA	0.0705
CTCGCGTC	0.0784
CAGACCAG	0.0695
AAACAAAC	0.0713
TGCCTGAA	0.0733
CCTGAACA	0.0792

Sequence	binding signal (normalized occupancy)
ATAGCGAT	0.0756
GATGGTTA	0.0778
GAGAGATC	0.0806
AACAGAAC	0.075
CATGTGGA	0.157
CGATGTAA	0.0729
ACTGCAGG	0.0684
GTTTCTTA	0.0733
CAACCCCG	0.0737
CCTGGACA	0.0774
GGTCCCAA	0.0719
ATAAAAAG	0.0796
ATAAGTGA	0.0765
ACTCAGGC	0.075
CCCACAGG	0.0736
ATTTTTGG	0.074
AATGAGCG	0.0753
CTACACCA	0.0787
CACAGAAA	0.0694
ATGCTTGG	0.0811
GAGAGGCA	0.0736
GCTGCCGA	0.0651
GAGTTGAA	0.0697
CTGCGTCA	0.0709
AGCGTTCC	0.0728

Sequence	binding signal (normalized occupancy)
AACGCACT	0.0741
AAGTTCGG	0.0656
AGCCTCCC	0.0713
AGGTGGAA	0.0722
ATACCATG	0.0891
CGCTAGTC	0.0696
ACTGAGCA	0.0734
ACATAAAG	0.0761
AATGGTTC	0.0736
AAATTTAG	0.0709
ACAGGGCG	0.0749
AGGCTCCC	0.0678
CCGGCCAC	0.07
CTCATGAG	0.0946
AGAGGATA	0.0778
CAACGCAG	0.0711
ACGGTCCC	0.0698
ACTGCTAG	0.0657
CTCCCAAC	0.0733
AGAACCAT	0.0758
CGATACCA	0.074
CTAGCGAC	0.0684
CGTTAATC	0.0776
CAGGTGGA	0.0861
AAGCCGAG	0.0678

Sequence	binding signal (normalized occupancy)
AGAGTAGA	0.0773
CTGAAAGC	0.077
AAATGTAT	0.0812
TCTCCAAA	0.0803
AGCTATCG	0.0727
GTGGTGGA	0.0781
CAAAGGAC	0.071
CAAGACGA	0.0663
CTCTGTGA	0.0724
CAGTCGCG	0.071
AGACAGGC	0.0706
AAACGTGA	0.099
ATAGAACG	0.0822
CATGAGGC	0.109
CCGTTAGA	0.0774
CGAGCCCA	0.0685
GCCATGGC	0.0823
CAATCCAG	0.0696
CGCTAGCA	0.0683
CACAGCAC	0.0807
CTGATATC	0.0798
ACAGAACC	0.0709
AAGTGGGC	0.0709
CCGCGGAC	0.0649
TATCGGGA	0.0777

Sequence	binding signal (normalized occupancy)
AGACCGCC	0.0762
ATTAGATC	0.0788
AATACTCC	0.0791
AGAAATCC	0.0744
GTAACTCA	0.0757
GTCTCTGA	0.0723
AACAACAA	0.0753
AGCAGCTG	0.075
CCAACAGC	0.0701
TGATAGCA	0.0855
ATGCTATC	0.081
CGATCTAA	0.0754
GGGAACGA	0.0803
GCTAATAA	0.0758
AGTGAAGG	0.0765
ATCAACCA	0.0763
CAAGCGTA	0.0693
CGTCCCGC	0.0716
GCAGATCA	0.0828
ATCACTGG	0.0746
CAATAGCA	0.0786
CGAGTAAG	0.0704
AACCGTCG	0.0702
TAGATACA	0.0837
CTGTTGCA	0.0748

Sequence	binding signal (normalized occupancy)
CGTTTTGA	0.074
ACCCCTCA	0.0844
CTCGTGAC	0.104
AATTCTCG	0.0745
GCGATTAC	0.0679
ATCTGCCG	0.0719
CATTGATC	0.0827
GGAAGCAA	0.0714
AGTATAAC	0.0795
ATCGATCA	0.0769
GAGAACTA	0.0732
GCAACTCA	0.0733
CGTGCCCA	0.0858
GGACGGCC	0.0678
CGCGCGGC	0.0872
CACGAACC	0.075
ACTCGGTG	0.0736
CAGCGTGC	0.118
ACTGCGCA	0.0752
CCTACATC	0.0782
GACTTCGC	0.0743
AGAATGGA	0.0768
ATCAGACC	0.0809
ATCTTCTG	0.075
TCGTGACA	0.0851

Sequence	binding signal (normalized occupancy)
GTACTTCA	0.0757
CGCGGTCA	0.077
CAACTATG	0.0846
ACGCCGCT	0.0763
GGTCATTA	0.0819
AATCTAGG	0.0746
CCACACAG	0.0788
GAATGCTC	0.0683
CTCCGAAA	0.0683
ACAGCAAT	0.0739
TCATGAGA	0.086
ACATGTCA	0.0911
AATAACAA	0.0746
ATACTCAC	0.0831
ACTGTAGA	0.0752
CGGATGGC	0.0731
AGTACCCC	0.0847
AAGGTGAT	0.0842
GGGTGCGA	0.0821
